Reference: PubChem BioAssay AID624202 (National Center for Advancing Translational Sciences (NCATS), 2012)
About 4,000 (1.1%) of roughly 380,000 compounds were called active. The shares of active, inactive and inconclusive entries below differ from those in the screen. Calls follow the shape of the dose curve; as a rule, active = well fitted activation curve with a large enough effect; inconclusive = small, poorly fitted or top-dose-only effect; inactive = no such curve, though single readings can be large or run the other way. Potencies beside an inconclusive call are fits to weak or partial responses and may not hold up.

assay: qHTS Assay to Identify Small Molecule Activators of BRCA1 Expression; conditions: MCF7-BRCA1-FFLuc reporter, luminescence, 48 h; activation: at 46.1 µM (top of the series), scaled: vehicle 0%, 10 µM genistein 100% unless noted; also: nearly all actives have a fitted effect of over 80% in size
How it was run: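 Quantitative HTS in MCF7 cells stably reporting BRCA1 expression via firefly luciferase. Compound treatment lasts 48 h at 37 °C in phenol-red free MEM. Activation is expressed relative to genistein at 10 microM and DMSO.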
Potency is read from the fitted curve at half-maximal effect; tags tell the direction and shape of the fitted curve.

| Compound | Potency | activation |
| --- | --- | --- |
| Cc1ccc(NC(=O)c2cc3ccccc3o2)cc1S(=O)(=O)N(C)C | inconclusive: 2 µM [activator, partial curve, poor fit] | – |
| Cc1ccc(NC(=O)C2OCCc3ccccc32)cc1C (centres undefined) | inconclusive: 11.2 µM [activator, partial curve, poor fit] | – |
| Cc1cc(C)cc(-n2c(SCC(N)=O)nc3c(oc4ccccc43)c2=O)c1 | – | inactive: -21% |
| Cc1cc(=O)oc2cc(NC(=O)c3cccc(F)c3)ccc12 | inconclusive: 1 µM [activator, full curve, poor fit] | – |
| CCOC(=O)c1oc2ccc(/C=N/O)c(Cl)c2c1C | active: 7.08 µM | – |
| COc1cc(/C=C(\C#N)C(=O)Nc2ccc(C(=O)O)cc2)ccc1OC(=O)c1cccc(F)c1 | – | inactive: 2.46% |
| Cc1ccc(/C=C/C(=O)N2CCCC(C)C2)cc1 (centres undefined) | inconclusive: 1.58 µM [activator, partial curve, poor fit] | – |
| COc1ccc(-c2noc(CCC(=O)Nc3cccnc3)n2)cc1 | – | inactive: 1.84% |
| C#CC(C)(CC)NC(=O)c1cc2c(n(-c3ccc(Cl)cc3)c1=O)CC(C)(C)CC2=O (centres undefined) | – | inactive: -14.4% |
| COc1ccc(OC(=O)c2cnn(-c3ccccc3)c2C)cc1 | active: 10 µM | – |
| O=C(NCCNc1ccccc1[N+](=O)[O-])c1ccccc1F | inconclusive: 10 µM [activator, partial curve, poor fit] | – |
| CCCc1cc(C(=O)Nc2cccc(Cl)c2)no1 | inconclusive: 20 µM [activator, partial curve, poor fit] | – |
| COc1ccc(CC(=O)OCC(=O)c2ccc[nH]2)cc1 | – | inactive: -6.71% |
| N#CCOc1ccccc1/C=C/c1nc2ccccc2c(=O)[nH]1 | inconclusive: 0.501 µM [activator, full curve, poor fit] | – |
| O=C(CCn1c(=O)oc2ccccc21)Nc1nccs1 | inconclusive: 31.6 µM [activator, single point] | – |
| Nc1c(-c2ccccc2)cnn1-c1cccc(C(F)(F)F)c1 | active: 5.01 µM | – |
| CCCc1ccc(C(=O)NNc2ccccc2F)cc1 | inconclusive: 11.2 µM [activator, partial curve, poor fit] | – |
| Cc1ccc(-c2nc3ccc(Cl)cn3c2Cc2cccc(F)c2)cc1 | inconclusive: 15.8 µM [activator, partial curve, poor fit] | – |
| COC(=O)c1ccc2[nH]c(C3(O)CCCCC3)c(C)c2c1 | inconclusive: 11.2 µM [activator, partial curve, poor fit] | – |
| Cc1cc(OCC(=O)N(C)Cc2ccccc2)ccc1Cl | inconclusive: 12.6 µM [activator, partial curve, poor fit] | – |
| COc1ccc2nc(NC(=O)Nc3ccccc3OC)sc2c1 | inconclusive: 0.501 µM [activator, full curve, poor fit] | – |
| Cc1cn([C@H]2C[C@H](O)[C@@H](CCC(=O)NCC3CCCO3)O2)c(=O)[nH]c1=O (some centres undefined) | – | inactive: 36.1% |
| O=C(O)c1ccc(N/N=C/c2ccc(OC(=O)c3cccc(Cl)c3)cc2)cc1 | – | inconclusive: -81.6% [activator] |
| CC1(C)C(C(=O)OCC(Cl)(Cl)Cl)N2C(=O)C(NC(=O)Cc3ccccc3)C2S1=O (centres undefined) | – | inactive: -3.49% |
| CC(=O)NC(=S)Nc1ccc2oc(-c3cc(F)c(F)cc3Cl)nc2c1 | inconclusive: 0.562 µM [activator, full curve, poor fit] | – |

| Compound | Potency | activation |
| --- | --- | --- |
| N#Cc1c(NC(=O)CSc2nc(-c3ccco3)cc(C(F)(F)F)n2)sc2c1CCCC2 | – | inactive: -11% |
| COc1ccc(/C(N)=N/OC(=O)c2ccco2)cc1OC | active: 7.94 µM | – |
| O=C(/C=C1\NC2(CCCC2)Cc2ccccc21)C(=O)N/N=C/c1ccccc1O | – | inactive: -90.1% |
| CC1CCCC(C)N1C(=O)c1cc(-c2ccc(Cl)c(Cl)c2)on1 (centres undefined) | inconclusive: 14.1 µM [activator, partial curve, poor fit] | – |
| Cc1ccc(C(=O)OCC(=O)c2cc(C)n(CC3CCCO3)c2C)cc1 (centres undefined) | inconclusive: 10 µM [activator, partial curve, poor fit] | – |
| Cc1ccccc1-c1nnc(SCc2ccccc2F)o1 | inconclusive: 2.24 µM [activator, full curve, poor fit] | – |
| CCOC(=O)c1cccc(NC(=O)c2cncc(Br)c2)c1 | inconclusive: 35.5 µM [activator, single point] | – |
| COc1cccc(CN(C)C(=O)CNC(=O)c2ccc(-c3ccccc3)cc2)c1OC | – | inactive: -50.6% |
| COc1ccc(S(=O)(=O)N(CC(=O)Nc2cccc(C)c2)c2ccc(C)cc2)cc1OC | – | inactive: -37.9% |
| COc1cc(NC(=O)C(C)C)ccc1NC(=O)c1cc2ccccc2o1 | active: 8.91 µM | – |
| Cc1ccsc1CN(C)C(=O)CCc1nnc(COc2ccccc2)o1 | inconclusive: 28.2 µM [activator, single point] | – |
| CC(=O)Oc1ccc2occ(C(=O)c3cccs3)c2c1 | inconclusive: 31.6 µM [activator, single point] | – |
| O=C(Cc1csc(NC(=O)Nc2ccc(Cl)cc2)n1)NC1CCCC1 | – | inactive: -25.7% |
| CCCn1c(=O)c(C(=O)NNC(=O)c2ccc(Cl)cc2Cl)c(O)c2ccccc21 | – | inactive: -14.3% |
| O=C(Cn1cnc2c(cnn2-c2ccc(F)cc2)c1=O)N1CCCc2ccccc21 | – | inactive: -58.6% |
| COc1ccccc1/C=C/C(=O)Nc1ccc2c(c1)CCC2 | inconclusive: 0.794 µM [activator, full curve, poor fit] | – |
| CCn1c(C)nc2cc(C(=O)NNC(=S)Nc3ccccc3Cl)ccc21 | active: 3.98 µM | – |
| CCC(=O)Nc1ccc(N2CCC(C)CC2)cc1 | inconclusive: 20 µM [activator, single point] | – |
| CC(=O)Nc1ccc(-c2csc(-c3cccnc3)n2)cc1 | inconclusive: 2 µM [activator, full curve, poor fit] | – |
| Clc1ccc(-c2csc(Nc3ccccc3)[n+]2Cc2ccco2)c(Cl)c1 | inconclusive: 14.1 µM [activator, partial curve, poor fit] | – |
| CCOC(=O)c1cccc(NC(=O)Nc2ccc(OCC)cc2)c1 | – | inconclusive: -41.5% [activator] |
| COc1ccc(NC(=O)Cn2nnc(C(=O)NCc3cccs3)c2N)c(OC)c1 | – | inactive: -2.43% |
| COc1ccc(C(=O)NCCSc2ccccn2)cc1 | inconclusive: 0.501 µM [activator, full curve, poor fit] | – |
| N/C(=N\OCc1ccc([N+](=O)[O-])cc1)c1ccncc1 | inconclusive: 10 µM [activator, partial curve, poor fit] | – |
| CCCC(=O)OCCNc1cc(Sc2nc3ccccc3[nH]2)c2nonc2c1[N+](=O)[O-] | – | inactive: -87.8% |

| Compound | Potency | activation |
| --- | --- | --- |
| Cc1ccc(NC(=O)C2CC3CCC2C3)c(Br)c1 (centres undefined) | inconclusive: 10 µM [activator, partial curve, poor fit] | – |
| Cc1ccc(C(=O)Nc2ccc(C)c(S(=O)(=O)N(C)C)c2)s1 | inconclusive: 3.16 µM [activator, full curve, poor fit] | – |
| O=C1N=C(N2CCCCC2)S/C1=C\c1ccccc1F | inconclusive: 1.78 µM [activator, full curve, poor fit] | – |
| COc1ccccc1OCCn1nnc2ccccc21 | inconclusive: 22.4 µM [activator, partial curve, poor fit] | – |
| O=C(NCCc1ccccc1)c1cccc(NC(=O)C2CCCC2)c1 | active: 10 µM | – |
| Cc1ccc(C(=O)c2coc3ccc(O)cc23)cc1 | inconclusive: 7.08 µM [activator, full curve, poor fit] | – |
| CCCCCCCCCC(=O)N/N=C/c1ccc(C)s1 | inconclusive: 35.5 µM [activator, single point] | – |
| Nc1nccc(/C=C/c2ccc(Cl)cc2)n1 | inconclusive: 1.58 µM [activator, partial curve, poor fit] | – |
| C/C(=N\NC(=O)c1ccc2c(c1)OCCO2)c1ccccc1 | inconclusive: 0.501 µM [activator, full curve, poor fit] | – |
| COC(=O)c1ccc(S(=O)(=O)NCc2ccco2)o1 | – | inactive: 25% |
| C(=N\Nc1nc2ccccc2[nH]1)/c1cccs1 | active: 10 µM | – |
| CCCN(CCC)S(=O)(=O)c1ccc(NC(=O)c2cc(C(=O)OC)cc([N+](=O)[O-])c2)cc1 | – | inactive: -5.76% |
| Cc1ccc(C(=O)Cn2nnc3ccccc32)cc1 | active: 4.47 µM | – |
| O=C(Nc1ccccc1F)c1ccc(CN2CCc3ccccc3C2)cc1 | – | inactive: -5.98% |
| COc1cccc(OCc2cc(C(=O)N(C)C3CCCCC3)no2)c1 | active: 11.2 µM | – |
| CS(=O)(=O)N1CCc2cc(C(=O)Nc3cccc(F)c3)ccc21 | active: 11.2 µM | – |
| O=C(N/N=C/c1cccc(F)c1)c1csc2c1CCCC2 | inconclusive: 2 µM [activator, full curve, poor fit] | – |
| CC(=NC1CCCCC1)C1=C(O)c2ccccc2C1=O | inconclusive: 1.41 µM [activator, full curve, poor fit] | – |
| Cc1ccc(Cl)cc1C1=CC(=O)C[C@H](c2ccc(F)cc2)C1 | – | inconclusive: 229% [activator] |
| c1coc(-c2cc3nc(NC4CCCCC4)ccn3n2)c1 | inconclusive: 1 µM [activator, full curve, poor fit] | – |
| CC(C)CCn1cnc2c(cnn2-c2ccc(F)cc2)c1=O | active: 8.91 µM | – |
| CC(=O)N1c2ccccc2N2C(c3c(C)c(C)cc(C)c3C)=NON12 | – | inactive: -22.8% |
| Cc1ccc(-c2noc(-c3ccccc3C(=O)NCC3CCCO3)n2)cc1 (centres undefined) | – | inactive: 10.2% |
| Cc1c(-c2ccc(OCc3ccccc3)cc2)nc2ccccc2c1C(=O)O | inconclusive: 14.1 µM [activator, single point] | – |
